About 6,900 (2%) of roughly 340,000 compounds were called active. Rule as the data show it: active = inhibition above about 30%; inactive = below that, where a call was filed. The entries are a selection whose mix differs from that of the whole data set. Entries without a call were filed so in the source.

The record followed here is PubChem BioAssay AID485344 (National Center for Advancing Translational Sciences (NCATS), 2010).

Chain of UniProt P14416 (P14416 whole entry, looked up): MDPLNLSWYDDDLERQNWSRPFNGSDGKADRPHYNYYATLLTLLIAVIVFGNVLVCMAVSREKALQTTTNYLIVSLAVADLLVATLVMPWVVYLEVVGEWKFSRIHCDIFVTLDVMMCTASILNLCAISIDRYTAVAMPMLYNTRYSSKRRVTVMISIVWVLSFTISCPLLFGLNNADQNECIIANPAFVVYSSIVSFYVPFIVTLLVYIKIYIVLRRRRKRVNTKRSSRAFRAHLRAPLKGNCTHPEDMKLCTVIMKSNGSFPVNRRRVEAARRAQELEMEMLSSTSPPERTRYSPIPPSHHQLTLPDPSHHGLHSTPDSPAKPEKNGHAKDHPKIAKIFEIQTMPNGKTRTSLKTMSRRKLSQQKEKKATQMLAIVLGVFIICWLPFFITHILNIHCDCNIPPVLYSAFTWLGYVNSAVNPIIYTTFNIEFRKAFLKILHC

In the assay the target is D(2) dopamine receptor (Homo sapiens) (UniProt P14416). The assay is described as follows: HTS Assay for Allosteric Antagonists of the Human D2 Dopamine Receptor: Primary Screen for Antagonists. Also: 0% is about no effect. The following applies: HEK293 TREx D2 cells, calcium flux, dopamine EC80; at 10 µM; stronger effect = higher value. The procedure, abridged:
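Cells plated overnight at 30 C with tetracycline; no-wash calcium dye, 30–90 min RT; 10 s baseline; compound pinned; 180 s read; EC80 dopamine added; another 180 s read.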
A general note: Calcium assays in cells follow changes in intracellular calcium, usually with a dye or a luminescent sensor.
As to `Cc1ccc(S(=O)(=O)c2cn(C)c3cc(N4CCCC(C)C4)c(F)cc3c2=O)c(C)c1` (configuration not stated), the inhibition was 8.46%. With `Cc1cc2c(cc1S(=O)(=O)N(CCN(C)C)Cc1ccco1)OCC(=O)N2` the figure was -12%; with `O=C(NCCOCCn1c(=O)oc2ccccc21)Nc1ccc(F)cc1`, -4.4%. The value for `O=C1N/C(=N\S(=O)(=O)Cc2ccccc2)S/C1=C/c1cc([N+](=O)[O-])ccc1O` was active: 30.6%; that for `COc1ccc(OCC(=O)Nc2cccc(-c3nc4ccccc4s3)c2C)cc1` was 15%; that for `CCC1CN(C(=O)N2CCC(C(=O)NCc3ccccc3C)CC2)c2ccccc2O1` (configuration not stated) was 9.44%. Consider `Cc1ccc(-c2noc(CNC(=O)c3ccccc3)n2)cc1`, for which the inhibition was 5.48%. With `Cc1ccc(-c2cc3c(n2-c2ccc(C)cc2)CC(C)(C)CC3=O)cc1` the figure was -24.1%; with `CC(C)NC(=O)C1CCN(c2nc3ccccc3nc2C(F)(F)F)CC1`, -1.16%; with `Cc1ccc(Cn2c(C)c(CNCCCc3ccccc3)c(C(=O)O)c2C)cc1`, -7.99%. The value for `CCCCNC(=O)CSc1nnc(C)c2c(C)n(-c3ccccc3)nc12` was -13.2%.

`Cc1ccc(C(=O)n2nc(C)c(S(=O)(=O)N3CCCCCC3)c2C)cc1`: the inhibition is -6.34%. The value for `CCOC(=O)c1ccc(CN(Cc2ccccc2C)S(=O)(=O)c2ccc(C(C)(C)C)cc2)cc1` was -5.98%. With `Cc1cccc(-c2noc(-c3ccc(N4CCN(C)CC4)c([N+](=O)[O-])c3)n2)c1`, the inhibition worked out at 10.9%. The value for `COc1ccc(C)cc1NC(=O)c1ccc2c(c1)CCN2S(=O)(=O)c1ccc(Cl)cc1` was 0.574%. In the case of `COc1ccc(CNc2nc3c(c(=O)n(C)c(=O)n3C)n2Cc2ccccc2Cl)cc1`, the inhibition stood at 9.29%. Consider `Cc1ccc(C)c(CN2CCC(CNC(=O)c3cc4ccc5cccnc5c4[nH]3)CC2)c1`, for which the inhibition amounted to 22.7%.

Turning to `Cc1ccc(C2=CC(c3c(F)cccc3Cl)n3ncnc3N2)cc1C` (configuration not stated), the inhibition is -12.4%. With `CN(C)C1(CNC(=O)c2cccc(S(=O)(=O)NCc3ccccc3)c2)CCCCC1` the figure was active: 44.5%; with `CC(=O)Nc1cc(-c2nc3ccccc3s2)ccc1C`, 16.7%; with `CCn1c(-c2ccc(S(=O)(=O)N3CCOCC3)cc2)csc1=Nc1ccc(C)c(Cl)c1`, -22.2%. The value for `O=C(CSc1nnc2[nH]c(=O)cc(-c3ccccc3)n12)Nc1ccc(F)cc1F` was 5.44%. The value for `CCCn1c(-c2cccc(Br)c2)nc2ccccc21` was 0.43%; that for `Cn1c(CSCc2ccccc2Cl)nnc1SCC(=O)Nc1nccs1` was active: 59.7%; that for `Cn1ncc(C(=O)N2CCN(c3ccc(F)cc3)CC2)c1C1CCN(C(=O)OC(C)(C)C)CC1` was 3.94%. With `CCCN1C(=O)C(Cc2nc3ccccc3c(=O)n2-c2cccc(C)c2)c2ccccc21` (configuration not stated), the inhibition was 16.8%. With `c1ccc(-c2ccccc2OCCCCN2CCCCCC2)cc1` the figure was active: 148%. With `Cc1cc(NC(=O)COc2ccccc2)cc(-c2nc3ccccc3o2)c1O` the figure was 11.8%; with `CC(C)(C)OC(=O)N1CCC(c2nnc(SCc3ccccc3)o2)CC1`, 15.9%; with `COc1ccc(-c2noc(-c3ccc(N4CCCCC4C)c([N+](=O)[O-])c3)n2)cc1OC` (configuration not stated), -4.28%. In the case of `COc1ccccc1CNC(=O)c1ccc(N2Cc3cccc(OC)c3Oc3ncccc32)s1`, the inhibition was found to be 4.94%. `O=C1OC(C(=O)Nc2ccc(Cl)c(C(F)(F)F)c2)Cc2ccccc21` (configuration not stated): the inhibition was -19.7%. With `CCOc1ccccc1CNC(=O)c1ccc2c(c1)sc1nc(-c3cccc(OC)c3)cn12` the figure was 8.16%; with `CC(C)n1c(SCC(=O)Nc2ccc(F)cc2)nc2c(oc3ccccc32)c1=O`, 6.2%; with `CC(C)C12CN3CC(C(C)C)(CN(C1)C3c1ccc(OCc3ccccc3)cc1)C2=O` (configuration not stated), -9.5%. The value for `CC(=O)c1cccc(NC(=O)c2ccc(-n3c(C)nnc3C)cc2)c1` was 21.3%. With `COC(=O)c1cc(S(=O)(=O)NCC2CCN(Cc3ccc(C)cc3)CC2)c[nH]1` the figure was 11%. For the molecule `CCOc1ccc(-n2c(SCC(=O)Nc3ccc(F)cc3)nc3c([nH]c4ccccc43)c2=O)cc1`, the inhibition was -1.45%. Consider `Cc1cc(C)c2c(=O)cc(C(=O)Nc3sc4c(c3C(=O)NCc3cccnc3)CCCC4)oc2c1`, for which the inhibition was -4.24%. The value for `CCOC(=O)c1c(NC(=O)c2cc(C)on2)sc(C)c1C` was 12.5%.

On to `CCOc1ccc(NC(=O)CCS(=O)(=O)c2cccc3nonc23)cc1`, for which the inhibition is -2.65%. Take `Cc1ccc(-n2ncc3c(N4CCN(C)CC4)ncnc32)cc1Cl`: the inhibition is -16%. With `CNC(=O)c1ccc(Nc2nnc(-c3ccc(C)c(S(=O)(=O)N4CCCCC4)c3)c3ccccc23)cc1` the figure was 10.8%; with `CCc1cccc(NC(=O)CSc2ncccc2C(=O)Oc2ccccc2Cl)c1`, -19.3%; with `CNC(=O)c1c[nH]c2ccc(S(=O)(=O)Nc3cccc(Cl)c3C)cc2c1=O`, 1.26%.

Regarding `Cc1cc(C)cc(OCc2ccc(C(=O)Nc3ccccc3F)o2)c1`, the inhibition is 8.08%.

Regarding `COc1ccc(CNC(=O)CCC(=O)N2CC3CCCN3c3ccccc32)c(OC)c1` (configuration not stated), the inhibition was determined as 9.25%. The value for `Cc1ccc2c(c1)N(C(=O)N1CCC(C(=O)NC3CCCCCC3)CC1)CC(C)O2` (configuration not stated) was -3.14%; that for `COc1cc(NC(=O)Cc2c(C(=O)O)c(C)cn2C)cc(OC)c1` was 3.54%. The value for `CCOc1ccc(C2C(=O)N(C3CCCCC3)CC(=O)N2C2CCCC2)cc1OC` (configuration not stated) was 14.8%; that for `O=C(CSc1nnc(NC(=O)c2c(F)cccc2F)s1)NCC1CCCO1` (configuration not stated) was active: 73.8%; that for `Cc1ccc2nc(-c3ccc(NC(=O)COc4ccccc4)cc3)sc2c1` was -1.46%. For `CCN(c1cccc(C)c1)S(=O)(=O)c1nnc(NC(=O)c2ccccc2Cl)s1`, the inhibition amounted to 19.3%. The value for `COc1ccccc1N1CCN(C(=O)c2cc(-c3ccc(F)cc3)on2)CC1` was 4.6%; that for `CC(=O)c1ccc(N2C(=O)N(CC(=O)c3ccc(C)cc3)c3ccccc3S2(=O)=O)cc1` was 14%; that for `Cc1ccc(NC(=O)C(=O)c2cc(C)n(-c3ccc(F)cc3)c2C)cc1C` was 20.7%.

`CCOc1ccc(NC(=O)C2CCCN(S(=O)(=O)c3ccc4[nH]c(=O)ccc4c3)C2)cc1` (configuration not stated): the inhibition came out at 9.3%. The value for `COc1cccc(-n2ccn(CC(=O)c3ccc(F)cc3)c(=O)c2=O)c1` was -18.5%.

For `COc1ccccc1N1CCN(C(=O)CSc2nc3ccccc3nc2Cc2ccccc2)CC1`, the inhibition was found to be 12.7%.

With `O=C(Cc1noc2ccccc12)NNC(=S)Nc1ccc(Cl)cc1`, the inhibition is active: 48.4%.

As for `Cc1ccc(CSC2=Nc3ccccc3C3=NC(CC(=O)NC4CCCCC4)C(=O)N23)cc1` (configuration not stated), the inhibition is -14.1%. The value for `COc1ccc(CNC(=O)c2cc(Nc3ccc(C)cc3C)nc3ccccc23)cc1` was -1.29%.

For orientation: inhibition means the change of the read-out against control, counted positive when it falls.
